Source: publication PMC3656144
Results are given in words; binding and its absence hold for the method and conditions named. For part of these data: In cells and extracts the contact can be indirect. Some binding calls cover weakened binding; strength is not graded here. Tags and fused reporters may be left off the sequences shown. One block for each molecule: values may come before it.

Protein sequences, listed by entry. Tags and fused reporters are not part of them.
UniProt P34574: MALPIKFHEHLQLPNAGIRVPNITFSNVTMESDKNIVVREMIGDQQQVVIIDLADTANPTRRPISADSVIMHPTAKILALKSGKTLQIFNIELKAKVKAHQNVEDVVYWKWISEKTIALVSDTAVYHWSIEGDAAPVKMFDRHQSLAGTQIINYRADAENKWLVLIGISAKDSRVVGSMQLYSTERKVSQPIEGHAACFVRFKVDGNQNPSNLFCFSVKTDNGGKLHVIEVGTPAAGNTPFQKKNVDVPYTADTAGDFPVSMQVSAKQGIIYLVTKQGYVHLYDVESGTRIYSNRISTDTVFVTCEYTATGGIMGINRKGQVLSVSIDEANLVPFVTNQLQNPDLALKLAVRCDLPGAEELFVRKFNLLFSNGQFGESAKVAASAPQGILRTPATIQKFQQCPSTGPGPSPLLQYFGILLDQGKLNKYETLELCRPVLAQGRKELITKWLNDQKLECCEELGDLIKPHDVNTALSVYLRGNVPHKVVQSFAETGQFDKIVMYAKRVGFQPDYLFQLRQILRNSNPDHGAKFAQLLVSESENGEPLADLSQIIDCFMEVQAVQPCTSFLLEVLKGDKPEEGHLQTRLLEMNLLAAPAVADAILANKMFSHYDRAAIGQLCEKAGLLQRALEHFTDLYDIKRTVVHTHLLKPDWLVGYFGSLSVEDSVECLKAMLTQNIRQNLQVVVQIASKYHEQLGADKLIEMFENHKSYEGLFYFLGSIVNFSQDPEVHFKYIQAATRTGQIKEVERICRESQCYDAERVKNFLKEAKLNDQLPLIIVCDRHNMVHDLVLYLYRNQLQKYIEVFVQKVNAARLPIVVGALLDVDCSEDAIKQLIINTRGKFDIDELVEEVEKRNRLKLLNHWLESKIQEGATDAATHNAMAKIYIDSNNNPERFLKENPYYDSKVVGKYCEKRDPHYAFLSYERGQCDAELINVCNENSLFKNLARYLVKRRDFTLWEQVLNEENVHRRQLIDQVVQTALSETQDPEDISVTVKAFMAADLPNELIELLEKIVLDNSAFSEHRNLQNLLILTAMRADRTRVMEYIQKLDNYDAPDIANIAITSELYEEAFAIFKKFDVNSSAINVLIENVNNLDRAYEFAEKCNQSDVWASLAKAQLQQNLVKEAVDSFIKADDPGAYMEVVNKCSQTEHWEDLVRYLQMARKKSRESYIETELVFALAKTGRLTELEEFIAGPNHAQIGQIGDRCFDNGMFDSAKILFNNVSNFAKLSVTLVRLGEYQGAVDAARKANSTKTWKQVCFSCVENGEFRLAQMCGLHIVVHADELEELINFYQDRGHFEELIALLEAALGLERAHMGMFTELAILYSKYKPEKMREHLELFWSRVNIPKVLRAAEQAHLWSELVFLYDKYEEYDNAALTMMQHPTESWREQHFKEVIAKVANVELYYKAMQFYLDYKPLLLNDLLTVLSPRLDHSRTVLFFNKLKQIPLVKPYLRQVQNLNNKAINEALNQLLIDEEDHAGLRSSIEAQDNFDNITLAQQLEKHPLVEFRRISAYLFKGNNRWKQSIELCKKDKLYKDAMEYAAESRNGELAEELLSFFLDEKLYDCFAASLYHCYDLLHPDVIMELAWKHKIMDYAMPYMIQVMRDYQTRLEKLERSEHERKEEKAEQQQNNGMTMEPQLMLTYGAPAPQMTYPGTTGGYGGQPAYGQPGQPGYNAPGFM

Columns and labels:
DYN-1::GFP (C. elegans) = target: T1, DYN-1::GFP (C. elegans) (UniProt P39055); assay: co-IP; IP with GFP antibody from lysates of animals co-expressing an mCherry fusion and a GFP fusion (control: mCherry fusion alone); blots with mCherry and GFP antibodies
T1 sequence: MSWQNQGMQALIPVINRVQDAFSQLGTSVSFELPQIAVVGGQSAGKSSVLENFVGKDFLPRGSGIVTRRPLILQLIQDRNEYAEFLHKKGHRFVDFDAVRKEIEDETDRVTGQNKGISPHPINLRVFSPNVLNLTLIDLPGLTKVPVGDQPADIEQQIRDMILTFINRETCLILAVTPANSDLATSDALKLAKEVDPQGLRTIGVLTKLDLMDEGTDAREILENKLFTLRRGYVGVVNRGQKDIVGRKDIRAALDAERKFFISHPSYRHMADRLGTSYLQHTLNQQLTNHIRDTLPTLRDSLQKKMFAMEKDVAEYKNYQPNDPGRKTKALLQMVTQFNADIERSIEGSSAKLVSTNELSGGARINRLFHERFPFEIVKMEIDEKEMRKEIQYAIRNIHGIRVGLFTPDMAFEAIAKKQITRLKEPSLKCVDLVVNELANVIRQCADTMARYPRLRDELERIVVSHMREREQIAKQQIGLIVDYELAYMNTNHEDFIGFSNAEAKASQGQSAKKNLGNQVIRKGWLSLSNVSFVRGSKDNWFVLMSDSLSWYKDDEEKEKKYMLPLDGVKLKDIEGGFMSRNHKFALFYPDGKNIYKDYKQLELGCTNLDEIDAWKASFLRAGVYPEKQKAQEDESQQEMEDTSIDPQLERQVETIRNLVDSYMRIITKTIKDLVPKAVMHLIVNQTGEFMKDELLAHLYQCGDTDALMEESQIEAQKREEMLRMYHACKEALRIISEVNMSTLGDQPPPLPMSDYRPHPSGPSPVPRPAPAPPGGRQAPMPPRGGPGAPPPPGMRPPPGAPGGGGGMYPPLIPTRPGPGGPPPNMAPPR

LST-4::GFP (C. elegans) = target: T2, LST-4::GFP (C. elegans) (UniProt Q8I4E2); assay: as above
T2 sequence: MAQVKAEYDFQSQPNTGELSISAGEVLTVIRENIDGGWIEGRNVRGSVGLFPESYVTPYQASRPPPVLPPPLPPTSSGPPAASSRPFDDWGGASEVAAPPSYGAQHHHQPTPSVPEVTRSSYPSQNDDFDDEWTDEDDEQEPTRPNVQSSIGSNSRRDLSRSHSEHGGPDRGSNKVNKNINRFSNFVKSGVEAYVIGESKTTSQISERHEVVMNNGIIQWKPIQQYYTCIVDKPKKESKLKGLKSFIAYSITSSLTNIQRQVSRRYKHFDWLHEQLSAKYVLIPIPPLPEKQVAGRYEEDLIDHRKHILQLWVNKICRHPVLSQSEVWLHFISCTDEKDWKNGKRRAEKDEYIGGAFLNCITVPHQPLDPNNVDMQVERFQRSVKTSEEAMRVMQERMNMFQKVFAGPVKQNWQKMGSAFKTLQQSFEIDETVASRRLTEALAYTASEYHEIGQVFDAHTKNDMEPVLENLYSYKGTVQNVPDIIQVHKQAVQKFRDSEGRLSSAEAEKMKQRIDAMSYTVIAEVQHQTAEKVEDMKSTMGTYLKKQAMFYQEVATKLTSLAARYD

[1] = target: T3, LST-4::mCherry (C. elegans) (UniProt Q8I4E2); assay: co-IP; IP with mCherry antibody from lysates of animals expressing both LST-4::mCherry and DYN-1::GFP (control: DYN-1::GFP alone); blots with GFP and mCherry antibodies
T3 sequence: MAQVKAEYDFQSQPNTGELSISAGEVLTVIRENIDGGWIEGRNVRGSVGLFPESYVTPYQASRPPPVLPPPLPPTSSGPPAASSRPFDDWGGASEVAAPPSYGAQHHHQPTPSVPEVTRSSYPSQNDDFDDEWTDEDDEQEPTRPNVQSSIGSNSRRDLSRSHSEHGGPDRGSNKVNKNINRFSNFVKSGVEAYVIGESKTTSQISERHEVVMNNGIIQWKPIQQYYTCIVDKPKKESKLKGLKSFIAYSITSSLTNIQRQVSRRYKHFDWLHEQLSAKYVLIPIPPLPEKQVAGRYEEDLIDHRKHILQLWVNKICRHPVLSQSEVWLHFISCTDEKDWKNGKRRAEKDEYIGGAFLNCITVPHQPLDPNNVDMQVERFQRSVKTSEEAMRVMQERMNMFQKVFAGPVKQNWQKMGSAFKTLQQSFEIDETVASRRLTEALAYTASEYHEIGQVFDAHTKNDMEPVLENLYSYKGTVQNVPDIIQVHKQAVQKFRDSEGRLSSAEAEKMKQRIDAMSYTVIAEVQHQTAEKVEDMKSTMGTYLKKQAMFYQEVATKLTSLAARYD

[2] = target: T4, endogenous CED-6 (C. elegans (endogenous in whole animal lysate)) (UniProt O76337); assay: co-IP; IP of endogenous CED-1 or CED-6 with CED-1C or CED-6 antibody from whole cell lysates of N2 or GFP-fusion-expressing animals (controls: ced-1(e1735), ced-1 RNAi, ced-6 RNAi); blots with CED-1C, CED-6 and GFP antibodies
T4 sequence: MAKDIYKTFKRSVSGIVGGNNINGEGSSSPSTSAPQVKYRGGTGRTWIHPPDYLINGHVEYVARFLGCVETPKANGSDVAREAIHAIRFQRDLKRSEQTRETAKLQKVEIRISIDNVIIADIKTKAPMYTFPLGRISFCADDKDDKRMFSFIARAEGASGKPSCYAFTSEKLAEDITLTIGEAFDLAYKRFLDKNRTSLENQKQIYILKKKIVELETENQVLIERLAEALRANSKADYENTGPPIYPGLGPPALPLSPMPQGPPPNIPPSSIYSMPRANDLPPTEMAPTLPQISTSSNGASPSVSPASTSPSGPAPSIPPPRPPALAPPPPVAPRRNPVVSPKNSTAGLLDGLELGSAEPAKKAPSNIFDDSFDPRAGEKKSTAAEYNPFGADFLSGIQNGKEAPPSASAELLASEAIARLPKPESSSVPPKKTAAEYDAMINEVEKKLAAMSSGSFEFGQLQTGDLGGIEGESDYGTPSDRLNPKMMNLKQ

[3] = target: T5, GST-fused CED-6 (C. elegans) (UniProt O76337); assay: pull-down; GST or GST fusion (3 µg) immobilized on glutathione-Sepharose beads, incubated with purified His6-tagged protein at 4°C for ≥4 h, washed extensively; immunoblot with anti-His6 antibody; both purified
T5 sequence: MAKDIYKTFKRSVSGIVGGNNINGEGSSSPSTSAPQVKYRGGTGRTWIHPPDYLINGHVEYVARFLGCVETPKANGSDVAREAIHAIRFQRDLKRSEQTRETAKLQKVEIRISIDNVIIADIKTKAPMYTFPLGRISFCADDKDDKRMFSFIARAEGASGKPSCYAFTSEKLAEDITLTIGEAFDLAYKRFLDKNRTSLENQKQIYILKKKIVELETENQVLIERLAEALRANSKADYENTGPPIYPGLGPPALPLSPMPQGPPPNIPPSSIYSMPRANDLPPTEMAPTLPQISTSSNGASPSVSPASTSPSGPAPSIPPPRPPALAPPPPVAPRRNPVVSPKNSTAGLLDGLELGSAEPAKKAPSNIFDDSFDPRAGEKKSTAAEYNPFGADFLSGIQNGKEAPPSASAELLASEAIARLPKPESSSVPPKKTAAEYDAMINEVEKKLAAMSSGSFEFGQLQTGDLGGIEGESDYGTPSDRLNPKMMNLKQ

[4] = target: T6, GST-fused DYN-1 (C. elegans) (UniProt P39055); assay: as above
T6 sequence: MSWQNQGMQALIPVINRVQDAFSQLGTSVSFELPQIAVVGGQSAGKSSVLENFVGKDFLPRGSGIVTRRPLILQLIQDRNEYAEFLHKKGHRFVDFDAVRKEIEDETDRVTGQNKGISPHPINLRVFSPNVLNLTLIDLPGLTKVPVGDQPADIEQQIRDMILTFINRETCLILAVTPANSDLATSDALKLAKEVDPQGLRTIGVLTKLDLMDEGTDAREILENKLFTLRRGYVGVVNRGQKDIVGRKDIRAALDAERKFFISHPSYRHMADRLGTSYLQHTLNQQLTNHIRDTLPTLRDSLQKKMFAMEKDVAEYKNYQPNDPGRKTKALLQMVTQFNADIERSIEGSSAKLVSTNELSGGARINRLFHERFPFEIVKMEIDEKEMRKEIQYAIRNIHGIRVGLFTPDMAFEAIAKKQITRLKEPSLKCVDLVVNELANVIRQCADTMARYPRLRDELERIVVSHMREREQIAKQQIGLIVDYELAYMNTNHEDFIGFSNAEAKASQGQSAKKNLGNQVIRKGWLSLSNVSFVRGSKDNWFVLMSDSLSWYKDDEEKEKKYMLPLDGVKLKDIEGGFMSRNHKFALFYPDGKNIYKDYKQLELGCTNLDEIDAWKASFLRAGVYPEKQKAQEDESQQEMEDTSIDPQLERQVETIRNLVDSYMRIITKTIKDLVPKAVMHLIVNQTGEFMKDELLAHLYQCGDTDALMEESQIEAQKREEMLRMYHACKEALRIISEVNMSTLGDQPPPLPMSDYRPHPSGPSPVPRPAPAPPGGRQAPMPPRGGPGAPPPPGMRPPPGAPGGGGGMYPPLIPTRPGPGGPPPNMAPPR

[5] = target: T7, GST-fused intracellular region of CED-1 (CED-1C, amino acids 933–1111) (C. elegans) (UniProt Q9XWD6); assay: as above
T7 sequence: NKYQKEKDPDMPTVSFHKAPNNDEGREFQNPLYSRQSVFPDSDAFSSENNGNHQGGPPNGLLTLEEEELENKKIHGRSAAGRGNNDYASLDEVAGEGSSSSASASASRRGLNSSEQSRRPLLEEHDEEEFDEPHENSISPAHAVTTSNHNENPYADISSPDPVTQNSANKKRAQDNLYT

binding (DYN-1::GFP (C. elegans)): binds | binding (LST-4::GFP (C. elegans)): binds
Molecule: mCherry::CHC-1 (from UniProt P34574 1-1681)

binding [3]: no binding | binding [4]: binds | binding [5]: no binding
B2: His6-tagged recombinant LST-4 (protein, UniProt Q8I4E2 1-566)
chain: MAQVKAEYDFQSQPNTGELSISAGEVLTVIRENIDGGWIEGRNVRGSVGLFPESYVTPYQASRPPPVLPPPLPPTSSGPPAASSRPFDDWGGASEVAAPPSYGAQHHHQPTPSVPEVTRSSYPSQNDDFDDEWTDEDDEQEPTRPNVQSSIGSNSRRDLSRSHSEHGGPDRGSNKVNKNINRFSNFVKSGVEAYVIGESKTTSQISERHEVVMNNGIIQWKPIQQYYTCIVDKPKKESKLKGLKSFIAYSITSSLTNIQRQVSRRYKHFDWLHEQLSAKYVLIPIPPLPEKQVAGRYEEDLIDHRKHILQLWVNKICRHPVLSQSEVWLHFISCTDEKDWKNGKRRAEKDEYIGGAFLNCITVPHQPLDPNNVDMQVERFQRSVKTSEEAMRVMQERMNMFQKVFAGPVKQNWQKMGSAFKTLQQSFEIDETVASRRLTEALAYTASEYHEIGQVFDAHTKNDMEPVLENLYSYKGTVQNVPDIIQVHKQAVQKFRDSEGRLSSAEAEKMKQRIDAMSYTVIAEVQHQTAEKVEDMKSTMGTYLKKQAMFYQEVATKLTSLAARYD

More lines, now with the values behind:

B1: DYN-1::GFP (protein, UniProt P39055 1-830)
chain: MSWQNQGMQALIPVINRVQDAFSQLGTSVSFELPQIAVVGGQSAGKSSVLENFVGKDFLPRGSGIVTRRPLILQLIQDRNEYAEFLHKKGHRFVDFDAVRKEIEDETDRVTGQNKGISPHPINLRVFSPNVLNLTLIDLPGLTKVPVGDQPADIEQQIRDMILTFINRETCLILAVTPANSDLATSDALKLAKEVDPQGLRTIGVLTKLDLMDEGTDAREILENKLFTLRRGYVGVVNRGQKDIVGRKDIRAALDAERKFFISHPSYRHMADRLGTSYLQHTLNQQLTNHIRDTLPTLRDSLQKKMFAMEKDVAEYKNYQPNDPGRKTKALLQMVTQFNADIERSIEGSSAKLVSTNELSGGARINRLFHERFPFEIVKMEIDEKEMRKEIQYAIRNIHGIRVGLFTPDMAFEAIAKKQITRLKEPSLKCVDLVVNELANVIRQCADTMARYPRLRDELERIVVSHMREREQIAKQQIGLIVDYELAYMNTNHEDFIGFSNAEAKASQGQSAKKNLGNQVIRKGWLSLSNVSFVRGSKDNWFVLMSDSLSWYKDDEEKEKKYMLPLDGVKLKDIEGGFMSRNHKFALFYPDGKNIYKDYKQLELGCTNLDEIDAWKASFLRAGVYPEKQKAQEDESQQEMEDTSIDPQLERQVETIRNLVDSYMRIITKTIKDLVPKAVMHLIVNQTGEFMKDELLAHLYQCGDTDALMEESQIEAQKREEMLRMYHACKEALRIISEVNMSTLGDQPPPLPMSDYRPHPSGPSPVPRPAPAPPGGRQAPMPPRGGPGAPPPPGMRPPPGAPGGGGGMYPPLIPTRPGPGGPPPNMAPPR
binding [1]: binds | binding [2]: no binding

B3: DYN-1His6 (protein, UniProt P39055 1-830)
chain: MSWQNQGMQALIPVINRVQDAFSQLGTSVSFELPQIAVVGGQSAGKSSVLENFVGKDFLPRGSGIVTRRPLILQLIQDRNEYAEFLHKKGHRFVDFDAVRKEIEDETDRVTGQNKGISPHPINLRVFSPNVLNLTLIDLPGLTKVPVGDQPADIEQQIRDMILTFINRETCLILAVTPANSDLATSDALKLAKEVDPQGLRTIGVLTKLDLMDEGTDAREILENKLFTLRRGYVGVVNRGQKDIVGRKDIRAALDAERKFFISHPSYRHMADRLGTSYLQHTLNQQLTNHIRDTLPTLRDSLQKKMFAMEKDVAEYKNYQPNDPGRKTKALLQMVTQFNADIERSIEGSSAKLVSTNELSGGARINRLFHERFPFEIVKMEIDEKEMRKEIQYAIRNIHGIRVGLFTPDMAFEAIAKKQITRLKEPSLKCVDLVVNELANVIRQCADTMARYPRLRDELERIVVSHMREREQIAKQQIGLIVDYELAYMNTNHEDFIGFSNAEAKASQGQSAKKNLGNQVIRKGWLSLSNVSFVRGSKDNWFVLMSDSLSWYKDDEEKEKKYMLPLDGVKLKDIEGGFMSRNHKFALFYPDGKNIYKDYKQLELGCTNLDEIDAWKASFLRAGVYPEKQKAQEDESQQEMEDTSIDPQLERQVETIRNLVDSYMRIITKTIKDLVPKAVMHLIVNQTGEFMKDELLAHLYQCGDTDALMEESQIEAQKREEMLRMYHACKEALRIISEVNMSTLGDQPPPLPMSDYRPHPSGPSPVPRPAPAPPGGRQAPMPPRGGPGAPPPPGMRPPPGAPGGGGGMYPPLIPTRPGPGGPPPNMAPPR
binding [3]: no binding | binding [5]: no binding
